# Assay results published in the supplement of paper PMC3334620.
# The full ranking holds about 33,000 sequences; the median of “E-score (-0.5 to 0.5)” is about -0.054, and the highest 2% start at about 0.39. This is one part of the list.
# Molecular target: Ylr278c (UniProt Q05854)
# Experiment: PBM E-score (8-mer binding enrichment) (E-score (-0.5 to 0.5)); higher = stronger / more preferred TF binding; most listed sequences are background and not binding sites
# Settings: protein concentration: 200 nM; construct: GST-DNA-binding domain
# Method in brief: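 Universal all-10-mer Agilent arrays, double-stranded by primer extension on fresh or once-stripped slides, were probed with about 100-200 nM GST-tagged yeast transcription factors made by PURExpress. Fluorescent anti-GST detected bound protein, and masliner normalised the scans. E-scores from the Universal PBM Analysis Suite were given to each ungapped eight-base word pooled with its reverse complement.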
row,Sequence,PBM E-score
1,AAACATCC,0.191
2,ATGGCAAA,-0.154
3,AACATGAG,-0.164
4,AGAAGAAC,-0.00839
5,CGCATGAA,-0.0862
6,AATGTATC,-0.107
7,CACACACA,-0.153
8,AGGCACAT,-0.0629
9,ACTATGAC,-0.198
10,ATTTGTCG,0.17
11,AAATTACG,-0.0128
12,ACGAACTG,-0.0669
13,AGGGATGC,-0.32
14,AAGCCTTG,-0.127
15,ACGTAAGT,-0.159
16,CCTATCCA,-0.169
17,CCGGAGCC,0.422
18,GCCTGGCC,-0.0237
19,ATACGATA,-0.118
20,ACCTTGAA,-0.244
21,GACTATGC,-0.197
22,ACCTAGTC,-0.11
23,AGGGCTAT,-0.31
24,TCACATCA,-0.118
25,CCTCATGA,-0.121

row,Sequence,PBM E-score
1,GACCACCC,-0.191
2,TACACGAA,0.0186
3,ATCCGTTG,0.255
4,ATGGATGA,-0.173
5,CAAGAGGG,-0.292
6,AACGTATG,-0.345
7,ACCACCCG,0.0732
8,CGGGAGAA,0.238
9,TACGGGAA,0.182
10,AGGAGTTA,0.232
11,ACTAATCA,0.0547
12,CAATTTCG,0.0307
13,ACTGGCGA,-0.237
14,ACGACATC,-0.044
15,CACTACCC,-0.118
16,AATGGAAG,0.0805
17,CTGCCGAA,0.0975
18,ACACCGAG,0.203
19,CCTGGAAG,-0.185
20,CAGGATCG,0.00336
21,AAAGAGAG,-0.119
22,CCCGGAAA,0.429
23,ACTAGCGC,0.0149
24,AGTCATCC,-0.0541
25,CATAAGGA,-0.298

row,Sequence,PBM E-score
1,GCGCGTAC,0.179
2,CAGCCCGG,0.348
3,CTCCGACA,0.438
4,ACTCTTGG,-0.243
5,CCCATCGG,0.341
6,AGGCTCTA,-0.116
7,TCAAGAGA,-0.0473
8,ATCGCTCC,0.171
9,TCATATCA,-0.0987
10,CCATCCAC,-0.157
11,AACTGATC,-0.0713
12,CCGCAACG,0.235
13,ATTATCAA,-0.131
14,ATAGGGTG,-0.185
15,GTTGGATA,-0.0965
16,ACCTTCCC,-0.0567
17,CTAGCACC,-0.00874
18,GACTGGTA,0.0894
19,AGCACTTG,-0.312
20,AAACGCAG,0.0348
21,AAGTTCAG,-0.179
22,CGCTGACC,0.0763
23,AGTTAAGA,-0.191
24,GACCATAC,0.0249
25,GGCGACCC,0.114

row,Sequence,PBM E-score
1,CGTATTGC,0.144
2,ACGTTGGC,-0.0969
3,GGGGTTAC,0.121
4,CTTGGACC,-0.0833
5,CGGGAATA,0.374
6,AGCAGAAC,-0.208
7,CTATGTGC,-0.147
8,CGGGCGAC,0.217
9,AGTCGTGA,-0.211
10,CCGGTCTC,0.264
11,AGCATGCG,-0.0092
12,ACTAGAGA,-0.112
13,AGTACTCA,-0.24
14,GTACCGGA,0.415
15,GGGGGTTA,-0.28
16,CCGGGATA,0.395
17,CGCCGTCC,0.173
18,GCGCGCAA,0.219
19,CTACTATA,0.0735
20,ACAAGGAA,0.0444
21,ACAATCCC,0.257
22,AAGTTGGT,0.0137
23,CAAGTGTA,-0.18
24,GAGGACAA,-0.122
25,ATAGCCCA,-0.0838

row,Sequence,PBM E-score
1,CCCCGCGA,0.315
2,CCCTGACA,-0.119
3,CGGAGGTC,0.443
4,TACAACGA,-0.0145
5,CAATTTGA,0.0464
6,ATAAGCTC,0.0692
7,CGAAACCC,0.252
8,ACACGCTG,-0.171
9,CATAGTTA,-0.073
10,ACTTCGCT,-0.0759
11,AGCGTGGC,-0.0918
12,CTGTCGGC,0.35
13,CCAGCTGC,-0.0449
14,GATTTGAC,-0.0259
15,AATCTATG,-0.0536
16,CGATCCCG,0.263
17,TATGGTGA,-0.123
18,GAGGGGCC,-0.0204
19,CTCCGCCA,0.391
20,CCTTACAA,-0.13
21,AGTAGTAG,-0.146
22,AATATACT,0.0121
23,ACTTGCCC,0.0605
24,GCTCAGCC,-0.186
25,GGGACCAA,-0.0981

row,Sequence,PBM E-score
1,CAAACTAA,-0.0135
2,AAGGATTC,0.0256
3,AACAACCT,-0.104
4,AGGGTATC,-0.157
5,AACACGTC,-0.0585
6,CGCCAACC,0.104
7,GGTAGAAA,-0.0702
8,GCATCTCC,0.279
9,ACACTCTC,0.012
10,AGCGAAAC,0.0799
11,CCGCCACA,0.172
12,CTTTTTCC,0.167
13,AGATATAT,0.108
14,AGTGACCC,-0.0429
15,ATTGATCA,-0.202
16,AATATCGC,0.125
17,CGCGATTA,0.0862
18,CCCAAACA,-0.187
19,GAGTTTCA,0.038
20,CCACGCGC,-0.0375
21,CCGTTGTA,0.116
22,GCGTGTAC,-0.134
23,GATTTCGC,0.21
24,AATACTTG,-0.181
25,CACGCAGC,-0.00959

row,Sequence,PBM E-score
1,ATAGATCG,0.0794
2,AGTACGTC,-0.0722
3,CAAGTTAG,-0.0673
4,CTCTAAAA,-0.129
5,GCAGCTAC,-0.00295
6,AAGATTTA,0.0664
7,CGCCTAAA,-0.186
8,AGGTCAGC,-0.0623
9,CCCATGCG,-0.0748
10,TATATCAA,-0.0414
11,AAGATGGG,-0.0965
12,CGTTCTAA,0.129
13,GCCGTCGA,0.0565
14,TCACCCAA,0.0072
15,CAACCACC,0.042
16,GGCTCCCA,-0.145
17,ATGGAGGG,-0.302
18,ATTGCCGC,0.157
19,AGTCCATG,-0.0219
20,ACCTGAAC,-0.178
21,GCTGATCC,-0.00411
22,AAAATATC,-0.0383
